Assay results published in the BET-seq Pho4 binding data (Le et al. 2018).
The list shows a part of the results. The energies were worked out here from pooled read counts, against the library average; single values are noisy.

target: T1, Pho4 (S. cerevisiae) (UniProt P07270); assay: relative binding free energy (BET-seq); higher = weaker binding; conditions: reference: library average
T1 sequence: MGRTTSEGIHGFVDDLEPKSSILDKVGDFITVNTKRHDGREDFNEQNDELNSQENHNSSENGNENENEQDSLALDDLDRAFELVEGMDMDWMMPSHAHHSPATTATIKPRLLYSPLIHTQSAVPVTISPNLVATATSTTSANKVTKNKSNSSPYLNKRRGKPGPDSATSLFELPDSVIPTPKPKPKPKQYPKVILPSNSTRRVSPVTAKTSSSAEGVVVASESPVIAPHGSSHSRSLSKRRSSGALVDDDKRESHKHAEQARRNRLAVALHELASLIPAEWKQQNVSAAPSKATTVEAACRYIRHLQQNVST

| Sequence | relative binding free energy |
| --- | --- |
| ATGTGCACGTGTATTC | -0.06 kcal/mol |
| TTTCGCACGTGCGGTG | -0.12 kcal/mol |
| GTCGTCACGTGGGGGG | -0.08 kcal/mol |
| TGGTGCACGTGACATG | 0.04 kcal/mol |
| GAGAGCACGTGTAAGT | -0.01 kcal/mol |
| GTTTACACGTGGGTGG | 0.02 kcal/mol |
| AAATGCACGTGTATAT | -0.02 kcal/mol |
| ATTTACACGTGTGGGA | 0.17 kcal/mol |
| TTTGGCACGTGGACGA | -0.06 kcal/mol |
| TATTTCACGTGTTCTA | 0.1 kcal/mol |
| GGAGGCACGTGTCGGT | -0.1 kcal/mol |
| GTTGGCACGTGATGCA | -0.04 kcal/mol |
| ATGATCACGTGATGTT | 0.22 kcal/mol |
| GGGAGCACGTGATACT | 0.26 kcal/mol |
| TAAGGCACGTGGTTAG | -0.12 kcal/mol |
| CGATTCACGTGATTGT | 0.29 kcal/mol |
| TTTGCCACGTGGAGGC | -0.06 kcal/mol |
| GCGTTCACGTGAGCGG | 0.42 kcal/mol |
| GATTGCACGTGGCAGT | 0.08 kcal/mol |

| Sequence | relative binding free energy |
| --- | --- |
| GGTTGCACGTGGGCTC | -0.06 kcal/mol |
| GATTTCACGTGGGGAC | 0.39 kcal/mol |
| TTTCGCACGTGTTTTG | 0.05 kcal/mol |
| TATGGCACGTGGACGT | -0.14 kcal/mol |
| AAGGGCACGTGGAAGT | 0.12 kcal/mol |
| GAATTCACGTGTGGAG | 0.18 kcal/mol |
| GGGTGCACGTGATGTC | 0.12 kcal/mol |
| ATGATCACGTGACTGG | 0.29 kcal/mol |
| GGTCTCACGTGCGGGG | 0.26 kcal/mol |
| ATCTTCACGTGTTTTA | 0.04 kcal/mol |
| TATATCACGTGATTTA | 0.31 kcal/mol |
| GGTCACACGTGAGTTT | 0.4 kcal/mol |
| TATCTCACGTGAAGTG | 0.31 kcal/mol |
| AAATTCACGTGAGAGG | 0.37 kcal/mol |
| TTCTTCACGTGGAATA | 0.36 kcal/mol |
| AGGGCCACGTGTGAGG | 0.14 kcal/mol |
| ATTTGCACGTGCTAGT | -0.08 kcal/mol |
| GGGGGCACGTGGCAAT | -0.19 kcal/mol |
| AGTGTCACGTGTATTC | 0.11 kcal/mol |

| Sequence | relative binding free energy |
| --- | --- |
| GTCTTCACGTGATTTT | 0.33 kcal/mol |
| AGTTTCACGTGCGTAG | 0.15 kcal/mol |
| TAGATCACGTGAGGTC | 0.46 kcal/mol |
| ATGCACACGTGTTTTT | 0.13 kcal/mol |
| TTTGTCACGTGCCGGC | 0.22 kcal/mol |
| ATTTACACGTGATGAG | 0.29 kcal/mol |
| CGGGACACGTGTGGTG | -0.07 kcal/mol |
| ACGGTCACGTGCGGTA | 0.11 kcal/mol |
| GAGGCCACGTGGGCGG | -0.17 kcal/mol |
| AGTGTCACGTGATGAT | 0.17 kcal/mol |
| AAGGTCACGTGGAGAT | -0.02 kcal/mol |
| GGTAACACGTGGTCGG | -0.14 kcal/mol |
| CTTGTCACGTGGGTCA | -0.16 kcal/mol |
| TGGGGCACGTGATGCC | 0.07 kcal/mol |
| GGTTGCACGTGAATAT | 0.2 kcal/mol |
| CGCATCACGTGGGGTG | 0.03 kcal/mol |
| TGTACCACGTGGGGCG | -0.17 kcal/mol |
| GCATGCACGTGGAGTT | 0.08 kcal/mol |
| GGCGACACGTGTGGTG | 0.15 kcal/mol |
